Test results as given in PMC8321701.
These are yes or no findings as the source states them, for the method shown. For some assays here: Binding seen in cells or lysates may run through a third protein. Some entries that bind do so weakly or less than the wild type. For some assays here: Sequences can lack the tags named with a protein.

Amino acid sequences for entries named in this document (tags omitted). A change or cut given only in a name is not applied to a line headed by its entry.
UniProt P62745: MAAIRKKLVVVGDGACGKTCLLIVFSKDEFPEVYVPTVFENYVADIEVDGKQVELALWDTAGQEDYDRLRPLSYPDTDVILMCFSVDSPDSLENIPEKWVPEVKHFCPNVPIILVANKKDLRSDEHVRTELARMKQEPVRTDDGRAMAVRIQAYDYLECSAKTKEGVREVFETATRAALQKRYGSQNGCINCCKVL
UniProt Q9BST9: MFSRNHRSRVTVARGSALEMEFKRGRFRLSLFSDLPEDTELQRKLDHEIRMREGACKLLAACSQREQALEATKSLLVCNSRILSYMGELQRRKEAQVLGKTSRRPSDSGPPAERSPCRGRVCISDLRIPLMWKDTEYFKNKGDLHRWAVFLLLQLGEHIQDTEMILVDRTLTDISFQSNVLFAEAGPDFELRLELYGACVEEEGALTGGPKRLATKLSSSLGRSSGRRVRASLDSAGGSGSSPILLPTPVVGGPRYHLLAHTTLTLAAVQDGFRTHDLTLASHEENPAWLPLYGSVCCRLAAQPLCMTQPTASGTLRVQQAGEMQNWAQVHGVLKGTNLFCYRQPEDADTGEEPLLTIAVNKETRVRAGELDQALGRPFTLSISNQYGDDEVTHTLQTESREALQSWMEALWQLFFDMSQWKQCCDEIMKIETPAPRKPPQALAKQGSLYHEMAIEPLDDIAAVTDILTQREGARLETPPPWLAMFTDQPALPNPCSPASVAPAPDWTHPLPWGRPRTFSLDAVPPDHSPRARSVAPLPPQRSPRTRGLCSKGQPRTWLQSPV

T1: biotinylated CNKSR1 (wild-type) (human) (UniProt Q969H4)
T1 sequence (chain, biotinylated): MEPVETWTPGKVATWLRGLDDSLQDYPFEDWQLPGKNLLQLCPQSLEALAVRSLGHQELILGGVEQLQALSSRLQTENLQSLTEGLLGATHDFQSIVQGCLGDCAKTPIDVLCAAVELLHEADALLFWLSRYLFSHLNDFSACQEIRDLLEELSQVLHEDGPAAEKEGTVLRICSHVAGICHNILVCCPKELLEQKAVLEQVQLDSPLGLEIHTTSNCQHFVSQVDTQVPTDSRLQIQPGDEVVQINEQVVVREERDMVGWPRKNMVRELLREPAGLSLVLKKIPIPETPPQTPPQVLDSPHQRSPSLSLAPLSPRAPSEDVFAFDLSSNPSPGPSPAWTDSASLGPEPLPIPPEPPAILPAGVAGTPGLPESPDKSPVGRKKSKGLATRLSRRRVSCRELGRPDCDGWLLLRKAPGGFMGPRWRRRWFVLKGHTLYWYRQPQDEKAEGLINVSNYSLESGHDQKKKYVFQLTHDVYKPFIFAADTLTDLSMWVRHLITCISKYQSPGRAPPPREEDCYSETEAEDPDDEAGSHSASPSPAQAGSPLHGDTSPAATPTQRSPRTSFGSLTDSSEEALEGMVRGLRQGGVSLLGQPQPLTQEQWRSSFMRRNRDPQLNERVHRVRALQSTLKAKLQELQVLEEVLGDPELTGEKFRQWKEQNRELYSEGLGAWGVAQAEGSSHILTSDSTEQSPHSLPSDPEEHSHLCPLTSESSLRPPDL

T2: PTPRH-HA (wild-type) (human) (UniProt Q9HD43)
T2 sequence: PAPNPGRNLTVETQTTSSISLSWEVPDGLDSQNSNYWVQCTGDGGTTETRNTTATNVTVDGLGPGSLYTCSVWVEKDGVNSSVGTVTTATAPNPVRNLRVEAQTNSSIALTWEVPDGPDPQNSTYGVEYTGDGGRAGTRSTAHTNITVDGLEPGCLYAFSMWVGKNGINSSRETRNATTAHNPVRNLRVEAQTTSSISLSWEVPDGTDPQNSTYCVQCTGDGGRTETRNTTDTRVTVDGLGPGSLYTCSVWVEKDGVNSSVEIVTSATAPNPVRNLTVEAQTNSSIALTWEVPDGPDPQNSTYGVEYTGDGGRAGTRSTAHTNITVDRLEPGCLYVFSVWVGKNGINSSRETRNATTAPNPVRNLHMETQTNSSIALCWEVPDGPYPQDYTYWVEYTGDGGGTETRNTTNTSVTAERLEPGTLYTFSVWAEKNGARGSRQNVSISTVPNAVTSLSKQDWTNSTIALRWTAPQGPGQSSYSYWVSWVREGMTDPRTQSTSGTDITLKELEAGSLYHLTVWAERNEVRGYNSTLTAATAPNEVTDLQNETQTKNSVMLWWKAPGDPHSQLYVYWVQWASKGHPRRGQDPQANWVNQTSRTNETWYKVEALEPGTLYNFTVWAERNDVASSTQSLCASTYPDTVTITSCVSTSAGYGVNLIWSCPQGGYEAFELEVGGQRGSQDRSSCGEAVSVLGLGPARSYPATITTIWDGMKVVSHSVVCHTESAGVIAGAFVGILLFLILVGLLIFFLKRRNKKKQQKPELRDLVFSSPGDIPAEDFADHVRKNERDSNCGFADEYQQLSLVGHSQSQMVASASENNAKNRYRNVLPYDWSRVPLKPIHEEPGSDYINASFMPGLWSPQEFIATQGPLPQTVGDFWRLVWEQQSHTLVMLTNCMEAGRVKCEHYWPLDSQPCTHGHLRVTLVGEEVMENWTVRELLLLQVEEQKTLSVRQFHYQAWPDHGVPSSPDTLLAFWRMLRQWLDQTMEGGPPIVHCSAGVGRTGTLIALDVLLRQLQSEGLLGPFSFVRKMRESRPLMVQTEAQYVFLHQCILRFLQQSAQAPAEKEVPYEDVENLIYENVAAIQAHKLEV

B1: Myc-CNKSR1 (wild-type) (protein, UniProt Q969H4 1-720)
chain: MEPVETWTPGKVATWLRGLDDSLQDYPFEDWQLPGKNLLQLCPQSLEALAVRSLGHQELILGGVEQLQALSSRLQTENLQSLTEGLLGATHDFQSIVQGCLGDCAKTPIDVLCAAVELLHEADALLFWLSRYLFSHLNDFSACQEIRDLLEELSQVLHEDGPAAEKEGTVLRICSHVAGICHNILVCCPKELLEQKAVLEQVQLDSPLGLEIHTTSNCQHFVSQVDTQVPTDSRLQIQPGDEVVQINEQVVVREERDMVGWPRKNMVRELLREPAGLSLVLKKIPIPETPPQTPPQVLDSPHQRSPSLSLAPLSPRAPSEDVFAFDLSSNPSPGPSPAWTDSASLGPEPLPIPPEPPAILPAGVAGTPGLPESPDKSPVGRKKSKGLATRLSRRRVSCRELGRPDCDGWLLLRKAPGGFMGPRWRRRWFVLKGHTLYWYRQPQDEKAEGLINVSNYSLESGHDQKKKYVFQLTHDVYKPFIFAADTLTDLSMWVRHLITCISKYQSPGRAPPPREEDCYSETEAEDPDDEAGSHSASPSPAQAGSPLHGDTSPAATPTQRSPRTSFGSLTDSSEEALEGMVRGLRQGGVSLLGQPQPLTQEQWRSSFMRRNRDPQLNERVHRVRALQSTLKAKLQELQVLEEVLGDPELTGEKFRQWKEQNRELYSEGLGAWGVAQAEGSSHILTSDSTEQSPHSLPSDPEEHSHLCPLTSESSLRPPDL
B2: FLAG-GST-tagged CNKSR1 of the 4,212 human protein array (protein, UniProt Q969H4 1-720)
chain: MEPVETWTPGKVATWLRGLDDSLQDYPFEDWQLPGKNLLQLCPQSLEALAVRSLGHQELILGGVEQLQALSSRLQTENLQSLTEGLLGATHDFQSIVQGCLGDCAKTPIDVLCAAVELLHEADALLFWLSRYLFSHLNDFSACQEIRDLLEELSQVLHEDGPAAEKEGTVLRICSHVAGICHNILVCCPKELLEQKAVLEQVQLDSPLGLEIHTTSNCQHFVSQVDTQVPTDSRLQIQPGDEVVQINEQVVVREERDMVGWPRKNMVRELLREPAGLSLVLKKIPIPETPPQTPPQVLDSPHQRSPSLSLAPLSPRAPSEDVFAFDLSSNPSPGPSPAWTDSASLGPEPLPIPPEPPAILPAGVAGTPGLPESPDKSPVGRKKSKGLATRLSRRRVSCRELGRPDCDGWLLLRKAPGGFMGPRWRRRWFVLKGHTLYWYRQPQDEKAEGLINVSNYSLESGHDQKKKYVFQLTHDVYKPFIFAADTLTDLSMWVRHLITCISKYQSPGRAPPPREEDCYSETEAEDPDDEAGSHSASPSPAQAGSPLHGDTSPAATPTQRSPRTSFGSLTDSSEEALEGMVRGLRQGGVSLLGQPQPLTQEQWRSSFMRRNRDPQLNERVHRVRALQSTLKAKLQELQVLEEVLGDPELTGEKFRQWKEQNRELYSEGLGAWGVAQAEGSSHILTSDSTEQSPHSLPSDPEEHSHLCPLTSESSLRPPDL
B3: CNKSR1 (non-tagged), expressed in SKBR-3 cells (protein, UniProt Q969H4 1-720)
chain: MEPVETWTPGKVATWLRGLDDSLQDYPFEDWQLPGKNLLQLCPQSLEALAVRSLGHQELILGGVEQLQALSSRLQTENLQSLTEGLLGATHDFQSIVQGCLGDCAKTPIDVLCAAVELLHEADALLFWLSRYLFSHLNDFSACQEIRDLLEELSQVLHEDGPAAEKEGTVLRICSHVAGICHNILVCCPKELLEQKAVLEQVQLDSPLGLEIHTTSNCQHFVSQVDTQVPTDSRLQIQPGDEVVQINEQVVVREERDMVGWPRKNMVRELLREPAGLSLVLKKIPIPETPPQTPPQVLDSPHQRSPSLSLAPLSPRAPSEDVFAFDLSSNPSPGPSPAWTDSASLGPEPLPIPPEPPAILPAGVAGTPGLPESPDKSPVGRKKSKGLATRLSRRRVSCRELGRPDCDGWLLLRKAPGGFMGPRWRRRWFVLKGHTLYWYRQPQDEKAEGLINVSNYSLESGHDQKKKYVFQLTHDVYKPFIFAADTLTDLSMWVRHLITCISKYQSPGRAPPPREEDCYSETEAEDPDDEAGSHSASPSPAQAGSPLHGDTSPAATPTQRSPRTSFGSLTDSSEEALEGMVRGLRQGGVSLLGQPQPLTQEQWRSSFMRRNRDPQLNERVHRVRALQSTLKAKLQELQVLEEVLGDPELTGEKFRQWKEQNRELYSEGLGAWGVAQAEGSSHILTSDSTEQSPHSLPSDPEEHSHLCPLTSESSLRPPDL
B4: Myc-CNKSR1 (W493A) (protein, UniProt Q969H4 1-720)
chain: MEPVETWTPGKVATWLRGLDDSLQDYPFEDWQLPGKNLLQLCPQSLEALAVRSLGHQELILGGVEQLQALSSRLQTENLQSLTEGLLGATHDFQSIVQGCLGDCAKTPIDVLCAAVELLHEADALLFWLSRYLFSHLNDFSACQEIRDLLEELSQVLHEDGPAAEKEGTVLRICSHVAGICHNILVCCPKELLEQKAVLEQVQLDSPLGLEIHTTSNCQHFVSQVDTQVPTDSRLQIQPGDEVVQINEQVVVREERDMVGWPRKNMVRELLREPAGLSLVLKKIPIPETPPQTPPQVLDSPHQRSPSLSLAPLSPRAPSEDVFAFDLSSNPSPGPSPAWTDSASLGPEPLPIPPEPPAILPAGVAGTPGLPESPDKSPVGRKKSKGLATRLSRRRVSCRELGRPDCDGWLLLRKAPGGFMGPRWRRRWFVLKGHTLYWYRQPQDEKAEGLINVSNYSLESGHDQKKKYVFQLTHDVYKPFIFAADTLTDLSMAVRHLITCISKYQSPGRAPPPREEDCYSETEAEDPDDEAGSHSASPSPAQAGSPLHGDTSPAATPTQRSPRTSFGSLTDSSEEALEGMVRGLRQGGVSLLGQPQPLTQEQWRSSFMRRNRDPQLNERVHRVRALQSTLKAKLQELQVLEEVLGDPELTGEKFRQWKEQNRELYSEGLGAWGVAQAEGSSHILTSDSTEQSPHSLPSDPEEHSHLCPLTSESSLRPPDL

Tests used:
[1] = biological target: T1, biotinylated CNKSR1 (wild-type) (human); test: AlphaScreen or HTRF; competition: purified His-RhoB (Q63L) (500 ng) added for 1 h to the mixture of CNKSR1-biotin and PTPRH-cyto-FLAG (wheat germ products); only the binder purified
[2] = biological target: biotinylated RhoB (Q63L), constitutively active mutant (human) (UniProt P62745); test: AlphaScreen or HTRF; high-throughput screen: biotin-tagged RhoB bait (WT, Q63L or T19N) with each FLAG-GST-tagged protein of the 4,212 human protein array; streptavidin donor beads, anti-DYKDDDDK antibody and protein A acceptor beads; 100 mM Tris-HCl pH 8.0, 0.01% Tween 20, 1 mg/ml BSA; 25°C, 1 h; wheat cell-free translation products
[3] = biological target: purified His-RhoB (Q63L) (human) (UniProt P62745); test: pull-down; lysates of SKBR-3 cells expressing Myc-CNKSR1 (WT, ΔPH or W493A) in IP buffer (25 mM Tris-HCl pH 7.4, 150 mM NaCl, 1% NP-40, 1 mM EDTA, 5% glycerol) incubated with purified His-tagged RhoB (Q63L) 2 h at 4°C, then TALON resin 1 h at 4°C; Western blot; only the target purified
[4] = biological target: biotinylated RhoB (T19N), dominant negative mutant (human) (UniProt P62745); test: AlphaScreen or HTRF; high-throughput screen: biotin-tagged RhoB bait (WT, Q63L or T19N) with each FLAG-GST-tagged protein of the 4,212 human protein array; streptavidin donor beads, anti-DYKDDDDK antibody and protein A acceptor beads; 100 mM Tris-HCl pH 8.0, 0.01% Tween 20, 1 mg/ml BSA; 25°C, 1 h; wheat cell-free translation products
[5] = biological target: biotinylated RhoB (wild-type) (human) (UniProt P62745); test: as above
[6] = biological target: T2, PTPRH-HA (wild-type) (human); test: co-IP; SKBR-3 cells, control siRNA or KCTD10 siRNA #1 for 72 h, 48 h after transfection of PTPRH-HA and CNKSR1 vectors; IP with HA antibody, Western blot; KCTD10 knockdown reduced the interaction

binding [2] | binding [3] | further results | Molecule
 |  | binding [1]: binds | purified His-RhoB (Q63L) (from UniProt P62745 1-196)
binds |  |  | FLAG-GST-tagged RTKN (alias Rhotekin) of the 4,212 human protein array (from UniProt Q9BST9 1-563)
 | binds |  | B1
binds |  | binding [4]: no binding; binding [5]: no binding | B2
 |  | binding [6]: binds | B3
 | no binding |  | B4
